Values marked as one replicate rest on one cluster of the flow cell; about a third of the high ones do not repeat.

The test system of the series is ATP. The series is described as follows: switch fluorescence ratio, 500 uM ATP over buffer (Cy3 cluster intensity, sum of 5 cycles each) (fold (ratio)); higher = stronger signal-on switching upon ATP binding; sequences stand for … in TCGTCGGCAGCGTCAGATGTGTATAAGAGACAGTTTTTTTTTTTTTTTTTTTTTTTTT…TC. The settings on record: aptamer strand: ATP DNA aptamer (quencher-CACCTGGGGGAGTATTGCGGAGGAAGG + anchor), 100 nM annealed; ATP concentration: 500 uM; one replicate. In a few lines:
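Five buffer/ATP imaging cycles were run on Cy3-labelled switching-strand clusters on a modified Illumina MiSeq flow-cell, with NaOH stripping and re-annealing between cycles. In each cycle, clusters annealed to 100 nM quencher-labelled ATP aptamer were imaged in selection buffer, then after 15 min with 500 uM ATP at 22 °C. Per cluster, the fluorescence ratio is summed target-cycle over summed buffer-cycle Cy3 intensity, averaged per switch-domain sequence. Only clusters within 100-1000 RFU were kept.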
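Further: ATP exposure 15 min at 22 °C before imaging.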

For CTGGCTCGTA, the switch fluorescence ratio was 0.976.
On to TTGTCTTCGT, for which the switch fluorescence ratio came out at 0.967.
The value for GTATATCAGA was 0.989; that for CCAATCCCTG was 1.06; that for ACGTCAAAAA was 3.63.
In the case of CATCGGTGCA, the switch fluorescence ratio came to 0.992.
Turning to CCTAATGTCG, the switch fluorescence ratio was 1.
With AATCCGGAGG, the switch fluorescence ratio came out at 1.01.
CCGGCGAATA: the switch fluorescence ratio came out at 3.75.
The value for AATCTATTTT was 1.02.
The value for TCCAGACCAT was 1.01; that for GATGGACAGT was 1.02; that for CGTCGATAGG was 1.
The value for CAGGATACGG was 0.932; that for GGCCTAAGTA was 1.03.
With ACTCACCACA, the switch fluorescence ratio is 1.34.
The value for ATTGCACAGG was 1.43.
The value for CAGAGTGAT was 1.46.
The value for TTGCATATTG was 1.06; that for TCTGGTACAT was 1.12; that for GGCTGGACAA was 0.995.
Take TGGTTGTGCT: the switch fluorescence ratio was determined as 1.07.
Take GTAGTGCGAG: the switch fluorescence ratio stood at 1.03.
The value for AACCTCGTTT was 1.13.
The value for CTGAGACTGT was 1.02; that for AGCGGATCTG was 0.986; that for TGCTGCCGGC was 0.939.
In the case of CGCAGATTAT, the switch fluorescence ratio was 1.04.
The value for CCTTTTAATA was 1.07; that for TTGGATAGCC was 0.983; that for TTGAGATGAT was 0.982.
Take CAGTCTGGTT: the switch fluorescence ratio worked out at 1.11.
For CCAGACAGTT, the switch fluorescence ratio came out at 0.982.
On to TGTCCCCCA, for which the switch fluorescence ratio is 1.09.
On to AAGGGTTAAA, for which the switch fluorescence ratio is 1.
The value for TAATGGTGCA was 1.01; that for GATAGCTCCC was 1.17.
The value for CGATCTCATG was 0.955; that for GAGGAAGTGT was 0.958; that for TGGCCGTTGG was 0.942.
The value for GTTCAGCCTT was 0.995.
Take ATCAAAGTGG: the switch fluorescence ratio was determined as 0.994.
The value for AGCGAGTGGT was 0.999; that for TATGTAAGG was 1.02; that for CAGAGGAAGA was 1.01.
The value for AAACATCGG was 1; that for TGTCCAAGGT was 1.01.
Consider GGTGGTGCGG, for which the switch fluorescence ratio stood at 1.01.
The value for TTGGTGTACG was 0.932.
The value for GGTAGTGGTT was 0.981.
The value for ATCCGGAAAA was 1.08; that for CCGGGAAAGG was 1.04; that for TAATGAGAGT was 0.959.
Turning to TCCCCCACCA, the switch fluorescence ratio stood at 1.15.
As to TTGCCCAAAA, the switch fluorescence ratio came to 1.04.
For TTGAACGCAG, the switch fluorescence ratio is 1.11.
For TGCAGTTGTA, the switch fluorescence ratio was 0.978.
The value for TCTGAAACGT was 1.07; that for TTGAACACTT was 0.97.
With GTTCCTGTTG, the switch fluorescence ratio came out at 0.978.
The value for AAATATGG was 1.
The value for GGGTGCAACG was 0.979.
The value for CTATGAGTTC was 1.01.
On to GGGAACCTAG, for which the switch fluorescence ratio was 0.986.
As to AGAATAATCT, the switch fluorescence ratio was found to be 1.04.
In the case of CGCTGGGTAT, the switch fluorescence ratio worked out at 0.972.
Take TCAGGCCGCA: the switch fluorescence ratio is 1.23.
As for GGCAAAGAGT, the switch fluorescence ratio stood at 0.966.
On to CCCGTGGGTC, for which the switch fluorescence ratio was 1.
For the sequence CACGAGGATC, the switch fluorescence ratio turned out to be 1.04.
The value for ACGACCGTAA was 1.18; that for AGAATTGCAA was 1.04.
The value for ATGGCGTTAC was 1.01; that for CCAACAGGAG was 1.34; that for CTAAGTGGAT was 0.958.
The value for CGTAGAATAA was 0.957; that for GCAAGAACCT was 1.72; that for TAAGCACTAC was 1.81.
Consider TGAGCTAGCC, for which the switch fluorescence ratio was 1.02.
The value for GAGAACGGAG was 1.04.
The value for CAGCGAACGT was 0.98; that for ACTGTTAAC was 1.09.
For the sequence CCCGTGGCTG, the switch fluorescence ratio turned out to be 0.998.
For the sequence CTTAAGTAAG, the switch fluorescence ratio was determined as 0.976.
As to TGTCGAACGT, the switch fluorescence ratio was 0.987.
CGCCGGCAGG: the switch fluorescence ratio worked out at 1.04.
The value for AATGATTTGG was 1.01.
In the case of GTATTACTCG, the switch fluorescence ratio stood at 1.03.
The value for AGGAGCGAGA was 1.03; that for GGCGGATTTA was 0.965.
The value for GCCATACC was 1.09; that for CTTCAACGTG was 0.977.
For the sequence TATTTAATGG, the switch fluorescence ratio is 1.
The value for TCTCTTGATT was 0.94.
The value for GGATCTATAG was 0.99; that for ATATGAGCCG was 1.06; that for GTGCTCAAAA was 0.999.
The value for CTAAAGAACG was 0.999.
As for CAGTTAAGTT, the switch fluorescence ratio stood at 1.01.
The value for TTGTTTCGGA was 1.02; that for AAGTGGTGGA was 0.986; that for GGTCATCTC was 1.
The value for AGAGGTAAAG was 1.02; that for CTAATATTTT was 0.971.
The value for GCAACGGGGG was 0.997; that for CGGTATGAAG was 0.967.
With CGCACTGGT, the switch fluorescence ratio worked out at 1.05.
The value for TGCACGGTAC was 1.84; that for TCATTTACGC was 1.04.
For ACAGGTTCTC, the switch fluorescence ratio was 0.984.
The value for TCGGTGTAGG was 1.02; that for GAACTTTATT was 0.966.
As for GCTGTATGG, the switch fluorescence ratio came to 0.949.
The value for TGCAGGCGTC was 1.07; that for CCAGTAGCA was 1.39.
The value for TCTGCGTATC was 1.21; that for CTAGATTGTA was 0.993.
CCTGCGTTCC: the switch fluorescence ratio was 1.2.
The value for TCTTCGGACA was 1.17; that for ATACGAAGCT was 0.998.

The values are drawn from the supplement of paper PMC10126150.
